The values below are quoted from earlier work in article PMC10917340, “Coxsackievirus infection induces direct pancreatic β cell killing but poor antiviral CD8^+ T cell responses” (Science Advances, 2024).

Each structure is given as a SMILES string.

The test system of this series is new-onset T1D children and adolescents. The conditions noted are these: pleconaril and ribavirin given together; cited from earlier work.

Take `Cc1cc(CCCOc2c(C)cc(-c3noc(C(F)(F)F)n3)cc2C)on1` [pleconaril]: the “effect on residual insulin secretion” value is listed as “some preservation of residual insulin secretion”. On to `NC(=O)c1ncn([C@@H]2O[C@H](CO)[C@@H](O)[C@H]2O)n1` [ribavirin], for which the “effect on residual insulin secretion” value is reported as “some preservation of residual insulin secretion”.
